Data from the RNAGym collection of RNA variant scans (doi:10.1073/pnas.2313332121).
This sample is rich in variants without activity.

B1: TPR 5TU (parent)
chain: GGAUCUUCUCGAUCUAACAAAAAAGACAAAUCUGCCACAAAGCUUGAGAGCAUCUUCGGAUGCAGAGGCGGCAGCCUUCGGUGGCGCGAUAGCGCCAACGUUCUCAACUAUGACACGCAAAACGCGUGCUCCGUUGAAUGGAGUUUAUCAUG

Variants of: B1
Assay: polymerase ribozyme fitness, log enrichment relative to wild type (log ratio); higher = more active; in vitro selection for triplet polymerase activity
Method in brief: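 Each subunit of a heterodimeric triplet polymerase ribozyme was represented by a PCR-built, transcribed mutant library that underwent triplicate single-round in vitro selection with frozen incubation at −7 °C. Extended constructs were recovered by gel excision, streptavidin-bead capture and RT-PCR, and Illumina sequencing of input and output libraries kept genotypes with ≥10 input reads and ≥1 read per output. Fitness is the logarithm of genotype enrichment relative to wild-type enrichment, from inverse-variance-weighted replicate averages, with a logarithm base of 2.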
In the case of G59A A66C C69G C85G, the “polymerase ribozyme fitness (log ratio)” value is reported as no more than -4.2.
With G58C A66C the “polymerase ribozyme fitness (log ratio)” value was no more than -4.2.
In the case of G58C C85A G133U G143U, the “polymerase ribozyme fitness (log ratio)” value is reported as no more than -4.2.
In the case of G58U G67C C72U A73U C99U, the “polymerase ribozyme fitness (log ratio)” value is reported as no more than -4.2.
In the case of G58A C87G, the “polymerase ribozyme fitness (log ratio)” value is reported as no more than -4.2.
In the case of G58C A91U C125A, the “polymerase ribozyme fitness (log ratio)” value is reported as no more than -4.2.
With G58C C87A U127G the “polymerase ribozyme fitness (log ratio)” value was no more than -4.2.
For G58A G71U, the “polymerase ribozyme fitness (log ratio)” value was -0.673.
With G59A C85G C123G U127G the “polymerase ribozyme fitness (log ratio)” value was no more than -4.2.
In the case of G58C C75G C76G C85U, the “polymerase ribozyme fitness (log ratio)” value is reported as no more than -4.2.
With G58U G133A G140C the “polymerase ribozyme fitness (log ratio)” value was no more than -4.2.
With G58C U82G C99G the “polymerase ribozyme fitness (log ratio)” value was -1.45.
For G58U C85A C95G C96U, the “polymerase ribozyme fitness (log ratio)” value was -3.24.
With G58A C99U the “polymerase ribozyme fitness (log ratio)” value was -0.207.
With G58C C93U G94A G128A A137U U139G the “polymerase ribozyme fitness (log ratio)” value was no more than -4.2.
In the case of G58C C96U A150G, the “polymerase ribozyme fitness (log ratio)” value is reported as -0.919.
With G58C C69A A73C the “polymerase ribozyme fitness (log ratio)” value was no more than -4.2.
In the case of G58C G80C A91G C96A, the “polymerase ribozyme fitness (log ratio)” value is reported as no more than -4.2.
With G58C C72U A98G the “polymerase ribozyme fitness (log ratio)” value was 0.461.
For G58C U139C, the “polymerase ribozyme fitness (log ratio)” value was -3.3.
With G58A C125G G141U U146C the “polymerase ribozyme fitness (log ratio)” value was no more than -4.2.
In the case of G58U G152U, the “polymerase ribozyme fitness (log ratio)” value is reported as -2.71.
In the case of G58A C85G G88A G124A, the “polymerase ribozyme fitness (log ratio)” value is reported as no more than -4.2.
In the case of G58C G88A U90A A98G A115G, the “polymerase ribozyme fitness (log ratio)” value is reported as no more than -4.2.
With G58U G68A C95U the “polymerase ribozyme fitness (log ratio)” value was -4.01.
For G58C C93G U127A C131U U146C, the “polymerase ribozyme fitness (log ratio)” value was no more than -4.2.
With G58C A73G C87G A113G the “polymerase ribozyme fitness (log ratio)” value was no more than -4.2.
With G58C U82A G143C the “polymerase ribozyme fitness (log ratio)” value was -1.86.
For G59A A73G U90C C93G C131U U144G, the “polymerase ribozyme fitness (log ratio)” value was no more than -4.2.
For G58A G59A A122G U148C, the “polymerase ribozyme fitness (log ratio)” value was -2.64.
For G58A U61A G62A C87U U90A U102C C131G A138U U148C, the “polymerase ribozyme fitness (log ratio)” value was no more than -4.2.
In the case of G58C G84U A97U, the “polymerase ribozyme fitness (log ratio)” value is reported as -3.58.
For G58U G141A, the “polymerase ribozyme fitness (log ratio)” value was 1.05.
With G58A A107U G126U C149G the “polymerase ribozyme fitness (log ratio)” value was no more than -4.2.
With G58A G88C G92A C96A the “polymerase ribozyme fitness (log ratio)” value was no more than -4.2.
With G58A C85G the “polymerase ribozyme fitness (log ratio)” value was -2.86.
With G58A C93A G112C the “polymerase ribozyme fitness (log ratio)” value was -4.12.
For G58A U101G C132G G133C A142C, the “polymerase ribozyme fitness (log ratio)” value was -3.72.
With G59A C123A the “polymerase ribozyme fitness (log ratio)” value was -0.0504.
For G58A U61G G92C A107C A110C G117C, the “polymerase ribozyme fitness (log ratio)” value was no more than -4.2.
For G58U A89G, the “polymerase ribozyme fitness (log ratio)” value was -0.659.
In the case of G58A G68A C87G G88U C93U A142U, the “polymerase ribozyme fitness (log ratio)” value is reported as no more than -4.2.
For G58C A73G C85G, the “polymerase ribozyme fitness (log ratio)” value was -2.21.
In the case of G58A C87U C108U A142C, the “polymerase ribozyme fitness (log ratio)” value is reported as -3.89.
For G59A C129A C131G, the “polymerase ribozyme fitness (log ratio)” value was no more than -4.2.
For G59A A60C, the “polymerase ribozyme fitness (log ratio)” value was -1.48.
For G58C G59A A60G A106G A107C, the “polymerase ribozyme fitness (log ratio)” value was no more than -4.2.
With G58U C63G A142C the “polymerase ribozyme fitness (log ratio)” value was -1.41.
With G59A A60G C99G A107C the “polymerase ribozyme fitness (log ratio)” value was no more than -4.2.
With G58C G71A G86A C118G the “polymerase ribozyme fitness (log ratio)” value was no more than -4.2.
In the case of G58C G59C C85G A98G G112C A122U G143A, the “polymerase ribozyme fitness (log ratio)” value is reported as no more than -4.2.
In the case of G59A A60C C87U G100U C103G C116U C125A G143A, the “polymerase ribozyme fitness (log ratio)” value is reported as no more than -4.2.
In the case of G58U C95A C149U, the “polymerase ribozyme fitness (log ratio)” value is reported as -0.828.
For G58A C75U, the “polymerase ribozyme fitness (log ratio)” value was -1.82.
For G59A C99G, the “polymerase ribozyme fitness (log ratio)” value was -1.14.
In the case of G58C G143A, the “polymerase ribozyme fitness (log ratio)” value is reported as -0.724.
With G58C G94A the “polymerase ribozyme fitness (log ratio)” value was -0.64.
For G58U A142C, the “polymerase ribozyme fitness (log ratio)” value was -0.408.
For G58C U61A A73G A91U A120C, the “polymerase ribozyme fitness (log ratio)” value was no more than -4.2.
For G59A C76G U90G C99G, the “polymerase ribozyme fitness (log ratio)” value was no more than -4.2.
With G59A C87U the “polymerase ribozyme fitness (log ratio)” value was -1.42.
In the case of G58A C75U C118G, the “polymerase ribozyme fitness (log ratio)” value is reported as -0.168.
With G59A C103A A107U A110U U111A C118A A138G the “polymerase ribozyme fitness (log ratio)” value was no more than -4.2.
For G58C G126U U145G, the “polymerase ribozyme fitness (log ratio)” value was -3.82.
For G58U U82A C116U, the “polymerase ribozyme fitness (log ratio)” value was 0.803.
In the case of G58A C95U C96G, the “polymerase ribozyme fitness (log ratio)” value is reported as -1.01.
For G59A G67A G86C C96G G140U U144C A147U, the “polymerase ribozyme fitness (log ratio)” value was no more than -4.2.
With G58C A64C C79A G117U the “polymerase ribozyme fitness (log ratio)” value was no more than -4.2.
With G58A G65C A73G C85G C125A G140U G152C the “polymerase ribozyme fitness (log ratio)” value was no more than -4.2.
For G58A A97G U130G G140C U145G, the “polymerase ribozyme fitness (log ratio)” value was no more than -4.2.
For G58C A66C C87G U139A, the “polymerase ribozyme fitness (log ratio)” value was no more than -4.2.
In the case of G58A U61A G74U C129A U144A, the “polymerase ribozyme fitness (log ratio)” value is reported as no more than -4.2.
For G59A C69G A91C, the “polymerase ribozyme fitness (log ratio)” value was no more than -4.2.
In the case of G58U U77G G80A U82C C85U U90A A110C, the “polymerase ribozyme fitness (log ratio)” value is reported as no more than -4.2.
With G59A A89U the “polymerase ribozyme fitness (log ratio)” value was -0.162.
In the case of G59A A60U C75G U90G, the “polymerase ribozyme fitness (log ratio)” value is reported as no more than -4.2.
In the case of G58C G62C C95G, the “polymerase ribozyme fitness (log ratio)” value is reported as -3.72.
For G58C C87U C95U C114A G143A, the “polymerase ribozyme fitness (log ratio)” value was no more than -4.2.
With G58A C103G U111C G117A the “polymerase ribozyme fitness (log ratio)” value was no more than -4.2.
In the case of G58C U82G C132A, the “polymerase ribozyme fitness (log ratio)” value is reported as -2.83.
For G58C C96U, the “polymerase ribozyme fitness (log ratio)” value was -1.02.
For G58U A150C, the “polymerase ribozyme fitness (log ratio)” value was -3.57.
With G58C G68C C85A U102C A121G U127C the “polymerase ribozyme fitness (log ratio)” value was no more than -4.2.
With G59A C85G G126U the “polymerase ribozyme fitness (log ratio)” value was -2.21.
